We go through 93 sequences from article PMC10726135.

The other results are listed elsewhere or left out. At the low end of the ranking the order means little. Measured with an extract: partners may take part in the binding.

The assay concerns the target T1, HNF4alpha8 (COS-7 nuclear extract) (UniProt P41235-5).
T1 sequence: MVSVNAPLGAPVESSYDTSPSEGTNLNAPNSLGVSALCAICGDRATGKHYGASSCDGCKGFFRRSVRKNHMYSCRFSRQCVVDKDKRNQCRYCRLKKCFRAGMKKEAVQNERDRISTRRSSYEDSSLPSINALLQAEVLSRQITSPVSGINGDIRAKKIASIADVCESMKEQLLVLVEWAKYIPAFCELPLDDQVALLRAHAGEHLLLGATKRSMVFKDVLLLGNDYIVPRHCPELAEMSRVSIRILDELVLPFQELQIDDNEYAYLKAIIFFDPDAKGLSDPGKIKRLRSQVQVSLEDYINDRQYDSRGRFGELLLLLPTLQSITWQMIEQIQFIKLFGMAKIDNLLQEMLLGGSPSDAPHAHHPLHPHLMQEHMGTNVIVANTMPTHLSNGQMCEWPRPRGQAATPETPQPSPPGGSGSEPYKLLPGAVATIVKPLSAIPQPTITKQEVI
As to the kind of experiment: protein-binding microarray. Conditions: COS-7 nuclear extract on double-stranded Agilent 4x180k PBM; binding buffer, salt, pH and temperature not given; high values mean tight binding; double strand, one strand shown; sequences stand for … in …GCCTAGGGAGATTAGAGTATCGGTCGA
In the case of GATGCTGGACTTCAGCCTCCAGAACTATGA, the binding signal (log2 normalized intensity) amounted to 3.39.

In the case of GAGAGGCTGCCATCCCACATTCCACAGACT, the binding signal (log2 normalized intensity) is -1.16.

Consider GACGGCTAAGAGAAATCCACACAGCACTGA, for which the binding signal (log2 normalized intensity) is -1.39.

Turning to GCAAACACCTGGCCAGCGACTTTAGGGGCC, the binding signal (log2 normalized intensity) is -1.32.

In the case of AAGGTCAGTTTCTTTAAGACAAGTGTCCCT, the binding signal (log2 normalized intensity) was found to be 1.67.

As to GATCCAACTCTGAAGATTCACAGGTGGGAT, the binding signal (log2 normalized intensity) was -1.41.

For the sequence ATATTATGTTTTGTTATCTGTGCCACAGGT, the binding signal (log2 normalized intensity) came out at 1.69.

For the sequence GTCCTGGTCACAGTAACAGGGAGTCTGTTG, the binding signal (log2 normalized intensity) amounted to 0.503.

Consider CAAACACAGATAGCATAATCAAAGAGAAAA, for which the binding signal (log2 normalized intensity) was -1.29.

As to CCTCATCTGTGTAGAAATTGTGGCTTGTGT, the binding signal (log2 normalized intensity) is 1.82.

Regarding CTGTGGTCTAGCTTGTTCTCTCCCCCAACC, the binding signal (log2 normalized intensity) turned out to be 4.34.

As to GGACAGAGATAACTGGGGGCATAGCCCATG, the binding signal (log2 normalized intensity) is -1.3.

GAGGAGAATTGGCATTAATTCTTCTTTGAA: the binding signal (log2 normalized intensity) is -1.14.

GGTATCCACAGGAGGCCCCATCGCACGGCA: the binding signal (log2 normalized intensity) is -1.39.

For GCGATCCGGGCTCCGGGCGCCGCGCGCGCC, the binding signal (log2 normalized intensity) is -1.27.

Regarding GAGGTGACTTGTCCTGAGATAAGTCACCTT, the binding signal (log2 normalized intensity) amounted to 0.779.

In the case of TAATCTGCTTCCAGTTCCATAATCCCCGAA, the binding signal (log2 normalized intensity) turned out to be 2.5.

For GACCTTGGCACTGAAGAATGTCTAAATCTG, the binding signal (log2 normalized intensity) is 0.616.

In the case of TCTGAAGATAAATGCCTTAGCTGTGACCAT, the binding signal (log2 normalized intensity) is 0.412.

Regarding GCAGGGGATGCCCTTTGACCTCTGCTTCCT, the binding signal (log2 normalized intensity) turned out to be 8.67.

For AGGAAGTGTGCACAAGTCCTCACAATAATG, the binding signal (log2 normalized intensity) is -1.2.

For GGCCCTCTAGTCTAGTCCAAACTGCAACCT, the binding signal (log2 normalized intensity) was 1.

With ATGGGGACTTTGGACTCCTGTTTGAACAAA, the binding signal (log2 normalized intensity) was determined as 5.69.

In the case of GCAGACTTGGATTTTCTCATCCCAGGGATA, the binding signal (log2 normalized intensity) was -1.02.

Regarding AAACCAAAGCTGGAGTGCAGTCCCCGGCTG, the binding signal (log2 normalized intensity) is -0.88.

On to ACAATGGCATTTCACAGAGCAAGGGTCCAG, for which the binding signal (log2 normalized intensity) worked out at 2.5.

Take TGAGAGGAATGAGCAGGAACCTTGTGGTGG: the binding signal (log2 normalized intensity) was -0.219.

On to CCTGTTTGCTTCTGCCCCCTGGAGGAGCAA, for which the binding signal (log2 normalized intensity) stood at 3.1.

Consider GGGCCATTCCTCTATCTCCCTGTGACCTCC, for which the binding signal (log2 normalized intensity) came to 4.2.

With CGGCATTCTCTGGTCTGCGGTTGTGTAGAC, the binding signal (log2 normalized intensity) is 0.867.

In the case of AAGATAATGACTAAGGCAGGGAAGGAGAGT, the binding signal (log2 normalized intensity) was -1.37.

Regarding CAGTCACAGCAGTGGACTTTGACCTTGGCA, the binding signal (log2 normalized intensity) was found to be 9.69.

Turning to CACCCTGCTGTAAATAAAATGAGATTCCTT, the binding signal (log2 normalized intensity) is -1.08.

For the sequence CAGAAGACCCTTGGCCTCTACAGCTACTCC, the binding signal (log2 normalized intensity) worked out at 0.572.

As for TGGCATGTATAATGACACTAGCAGAAGAGA, the binding signal (log2 normalized intensity) was -1.

Regarding TCAGAGATCAAGATACAGGTCAGACCCTGG, the binding signal (log2 normalized intensity) stood at 1.48.

As for AAACAAGGCCAAAGTCTGGCAAATGAAATG, the binding signal (log2 normalized intensity) was found to be 0.295.

In the case of TGAGGGAGGGAGGAGGGACTGAACAGATAT, the binding signal (log2 normalized intensity) is -1.32.

As to ATAGTTGACCCTTGAACAATGTGGGGGTCG, the binding signal (log2 normalized intensity) stood at 4.63.

As for GTAAGGCCCGTGAGATTGAAAGCTAAGGCA, the binding signal (log2 normalized intensity) is -1.37.

As for GAGGGTGGGTTCAAAGGTCAGAAAAAGCTG, the binding signal (log2 normalized intensity) was determined as 7.27.

TAATTCTTCTTTGAAAGTTTGGTGGACTTT: the binding signal (log2 normalized intensity) was found to be 6.91.

Take TTGACTGAGGTGCAGGACAAAGTGTGCACT: the binding signal (log2 normalized intensity) was determined as 1.38.

As to GGGGGCGTTCCCCGAGCGAGCTCCGTGCGG, the binding signal (log2 normalized intensity) is -1.26.

In the case of AGTTTTAGAGTCAATACTCCACAAGACCAC, the binding signal (log2 normalized intensity) was -1.36.

On to AGAATGAGGGGCAGGCTTAGCTGGGCTAGC, for which the binding signal (log2 normalized intensity) was -1.37.

In the case of AAGCCAATCTCTCAAATCTAGCCAATGATG, the binding signal (log2 normalized intensity) was -1.13.

Regarding AGACTGAACAATTATTGCCTGGCATCTAAC, the binding signal (log2 normalized intensity) was -1.17.

Take GAAACCCCTGTAAGTCCAAACAAAATACAA: the binding signal (log2 normalized intensity) is -1.16.

In the case of TATCTGTTGTCAAACCCACATTCTTCACTG, the binding signal (log2 normalized intensity) was -1.33.

For CCAAGGGCTGTAGCAACCAAGTACCGCAAA, the binding signal (log2 normalized intensity) is -1.29.

Turning to GCCAACAACTAGGGCAAAGGTTAGCTTGGA, the binding signal (log2 normalized intensity) stood at 4.82.

Turning to GATAGTGGTTCCATTGTCCTACAGGACATT, the binding signal (log2 normalized intensity) came out at 1.02.

For AGGATGGGCCATGACCTTTACCCCCATTTG, the binding signal (log2 normalized intensity) is 8.39.

Regarding TACCAAGGCTCAGAGGTCAAGTCACTGCTC, the binding signal (log2 normalized intensity) is 3.09.

For the sequence GGGTGAGGGTGAGGGTTAGGGGTTAGGGTT, the binding signal (log2 normalized intensity) worked out at 1.39.

As to TGCTAAGTGCCATGTAATCAAACTGAACTT, the binding signal (log2 normalized intensity) was determined as 2.1.

In the case of CCACCTGCTGGTCAGGAGACTGCTCGGCAT, the binding signal (log2 normalized intensity) was -1.17.

Take ATTGTTATTTACGGTGGGCACCTCATACTA: the binding signal (log2 normalized intensity) is -0.547.

As to TTCAAATGAGGGCAGGATGCATGCACTTCA, the binding signal (log2 normalized intensity) was -1.17.

Consider AGGTCAGAGGTGAGAGCAGAATGAGCAAGG, for which the binding signal (log2 normalized intensity) is -1.29.

Consider CCCCTCCCCCAAGGCATGGGACCTTTGCCC, for which the binding signal (log2 normalized intensity) was determined as 7.34.

Regarding GCTCCAGCGGGGTTTGAATCCCGGGAATCC, the binding signal (log2 normalized intensity) was -1.18.

For the sequence GGCAAGCAAGTGACATGTTGGTGGGGGTGG, the binding signal (log2 normalized intensity) is -0.0615.

With GTCTGCCCAGAGCGGCAGCGCCTCCCGGTC, the binding signal (log2 normalized intensity) was -1.32.

Take TCCTGGCCTCCACTCCTCCTCCTTCCCTCC: the binding signal (log2 normalized intensity) was 0.827.

On to GGAAACTGCTTTGGTTAATCATTAGAGATG, for which the binding signal (log2 normalized intensity) was found to be 1.1.

Consider TTTGCTCTGCTACTAACTGCATGACTTCAG, for which the binding signal (log2 normalized intensity) was -1.29.

Take CGCCGCCTCTGCCTCTTGACCCCTTGGCCC: the binding signal (log2 normalized intensity) is 5.9.

Take TCCTGAGTCCACATGAGCCTCTTTATCTCT: the binding signal (log2 normalized intensity) is -0.141.

Turning to TCGACTTCCTCTTCATATCAGTAAACCCCA, the binding signal (log2 normalized intensity) came to 4.87.

As for GTTTCAGCCTTATTCTTTGATCTCTTATCA, the binding signal (log2 normalized intensity) amounted to 0.796.

For GGTTATTTCAATTACAAAGCAACACAATGC, the binding signal (log2 normalized intensity) was -1.27.

Regarding GTGTAAAACAGGTGAAAGATAAGGGCTAGT, the binding signal (log2 normalized intensity) is -1.25.

Turning to ACAAGCCCGGCTTTGGGCTTGAGCAGCTGG, the binding signal (log2 normalized intensity) was -1.36.

Turning to CCTCCCAGCCTGGAGGAGGGCGAGGCCGAG, the binding signal (log2 normalized intensity) is -1.27.

Turning to GCGACCCAGGCAGCCCCTTTGCTCCACACA, the binding signal (log2 normalized intensity) was -1.14.

Regarding CTGGACCTCATCTTCCTCCCCAATATGGTC, the binding signal (log2 normalized intensity) amounted to 2.48.

Turning to GTAGGGCCCCCAGCCAGGCCCCAGGCCAAC, the binding signal (log2 normalized intensity) was found to be 3.98.

CTCCACTTGGGTATCAGATAGTCCAATGTC: the binding signal (log2 normalized intensity) is 2.52.

Consider ACCTGCTGGAATGTTTCAAGTGGCCTGATT, for which the binding signal (log2 normalized intensity) turned out to be 1.21.

In the case of TGGACAGCAGACAACTTTTCCTCTAACCAC, the binding signal (log2 normalized intensity) was -1.39.

In the case of GCTCCATACTCCTTATCTTGGCTGTAAGAT, the binding signal (log2 normalized intensity) worked out at 1.06.

CTACATTCTAGATGACCCCTCTCTACTGGT: the binding signal (log2 normalized intensity) was found to be 4.03.

For TACCTGTACGTTACTCTGTACCTCGTGGGT, the binding signal (log2 normalized intensity) is 1.92.

In the case of ATTCCAGCTATTCTGCCTTATCAGCGGCCC, the binding signal (log2 normalized intensity) is -1.22.

As for GATTAGAGAGCAGGTGATAAGGAACTGTTA, the binding signal (log2 normalized intensity) was -0.81.

With TCTTCTTCACCGGAGATTTACATTCCAGAG, the binding signal (log2 normalized intensity) turned out to be 0.859.

For the sequence GACACCAAAGGTCACGTTCCAGCTGCTTCA, the binding signal (log2 normalized intensity) amounted to 2.65.

For CCTCCTGCTTAGCGGCCTTCCCCTTTTTCT, the binding signal (log2 normalized intensity) is 1.99.

With AAAAGTCCAGCTGCCAGGGAGACAAAGTGT, the binding signal (log2 normalized intensity) is -0.653.

AATAAACTGAGGGGTGGGGACCAGTGGGGG: the binding signal (log2 normalized intensity) was -1.22.

Regarding TGGGGATAAACACCCCCATCTATGCACTCT, the binding signal (log2 normalized intensity) stood at 0.825.
